Results: PubChem BioAssay AID540317 (National Center for Advancing Translational Sciences (NCATS), 2011)
In all, about 390,000 compounds went through this assay and about 2,200 (0.56%) were called active. This list was built around the results that the source calls inconclusive (neither active nor inactive); the mix of calls is not that of the screen. Calls follow the shape of the dose curve; as a rule, active = well fitted inhibition curve with a large enough effect; inconclusive = small, poorly fitted or top-dose-only effect; inactive = no such curve, though single readings can be large or run the other way. Where the call is inconclusive, the potency comes from a doubtful curve fit.

target: Chromobox protein homolog 1 (Homo sapiens) (UniProt P83916); assay: HTS for Inhibitors of HP1-beta Chromodomain Interactions with Methylated Histone Tails; conditions: AlphaScreen HP1-beta / biotin-H3K9me3 peptide binding; series mostly up to 114 µM; activity change, negative = inhibition: at the top concentration; also: nearly all actives have a fitted effect of over 70% in size
Procedure, shortened: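 Compound inhibition of the preformed complex between 50 nM HP1-beta and 50 nM biotinylated H3K9me3 peptide was read by AlphaScreen. Buffer was PBS pH 7.4 with 0.01% Tween-20. Incubations ran 30 min at room temperature, with 10 ug/mL donor/acceptor beads.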
Potency is read from the fitted curve at half-maximal effect; tags tell the direction and shape of the fitted curve.

Sequence of UniProt P83916 (P83916 whole entry, looked up): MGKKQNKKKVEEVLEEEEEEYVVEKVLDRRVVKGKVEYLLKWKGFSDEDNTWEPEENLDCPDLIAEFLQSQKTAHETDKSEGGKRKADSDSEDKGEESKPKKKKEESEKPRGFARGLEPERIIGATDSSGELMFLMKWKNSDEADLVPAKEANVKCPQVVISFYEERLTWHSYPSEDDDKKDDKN

| Compound | Potency | activity change, negative = inhibition |
| --- | --- | --- |
| Cc1cc(C)c2c(c1)-c1c(ssc1=S)C(C)(C)N2C(=O)CSc1nncn1C | inconclusive: 56.2 µM [inhibitor, single point] | – |
| CCOC(=O)C1CCN(C(=O)CSc2n[nH]c(-c3ccccc3)n2)CC1 | – | inactive: 29.4% [at 57 µM] |
| Cc1cccc(OCc2nc(C#N)c(NCc3ccccc3Cl)o2)c1 | inconclusive: 14.1 µM [inhibitor, full curve, poor fit] | – |
| Clc1ccc(-c2csc(=Nc3ccccc3)n2Cc2ccc3c(c2)OCO3)cc1 | inconclusive: 12.6 µM [inhibitor, full curve, poor fit] | – |
| O=C(Oc1ccc2ccc(O)cc2c1)C1CCCCC1 | inconclusive: 5.62 µM [inhibitor, full curve, poor fit] | – |
| CCCCC(CC)CNC(=O)CCCc1nnc2n(CCC)c(=O)c3sccc3n12 (stereo not given) | – | inactive: 36.9% |
| Cc1cc(C)n(C(=O)CSc2ccc(Cl)cc2)n1 | – | inactive: 28.3% |
| Cc1ccc(C)c(N2CCN(C(=O)Cn3c(=O)c4cccn4c4ccc(F)cc43)CC2)c1 | – | inactive: 29.5% |
| CN(C)C(=O)c1ccc(NC(=O)COC(=O)c2cc3c(s2)CCCCC3)cc1 | inconclusive: 31.6 µM [inhibitor, single point] | – |
| C=C1Nc2ccccc2C(=O)N1c1ccc(C(=O)N2CCN(C(=O)c3ccco3)CC2)cc1 | – | inactive: 40.1% |
| CC(C)c1ccc(S(=O)(=O)N2CCN(C(=S)NCc3ccco3)CC2)cc1 | inconclusive: 28.2 µM [inhibitor, single point] | – |
| Cc1coc2c1C(=O)C(=O)c1c-2ccc2c1CCCC2(C)C | inconclusive: 7.08 µM [inhibitor, full curve] | – |
| Cn1c(/N=C/c2c(O)ccc3ccccc23)nc2ccccc21 | inconclusive: 100 µM [inhibitor, single point] | – |
| O=[N+]([O-])c1ccc(CN2CCN(Cc3c[nH]c4ccccc34)CC2)cc1 | inconclusive: 14.1 µM [inhibitor, full curve, poor fit] | – |
| COc1ccc(/C=C/c2nc3ccccc3n2C)cc1 | – | inactive: 76.2% |
| COc1ccc(N2CCN(C(=O)Cc3coc4ccc(C)cc34)CC2)cc1 | inconclusive: 50.1 µM [inhibitor, partial curve] | – |
| COc1ccc(NC(C)=O)cc1NC(C)C(=O)Nc1ccc(F)c(F)c1F (stereo not given) | – | inactive: 35.8% |
| CCCc1cc(C(=O)Nc2ccc(OC)cc2[N+](=O)[O-])cs1 | inconclusive: 15.8 µM [inhibitor, full curve] | – |
| CCCNS(=O)(=O)c1ccc(CCC(=O)N2CCCCC2)cc1 | inconclusive: 7.94 µM [inhibitor, full curve] | – |
| O=C(/C=C/c1ccc(Br)o1)OCc1ccccc1 | – | inactive: 182% |
